We go through 153 variants from a collection of fitness landscapes (doi:10.1016/j.celrep.2020.107928).

In all, about 81,000 sequences were measured (“one-hybrid fitness for binding NBS DNA”: median about -0.1, highest 2% from about 0.36 on). The list shows a part of the results. A value given as a limit tells only on which side of the number the result lay.

B1: Caulobacter ParB omega fusion; a variant is named by its letters at X, in order, B8GW30 (parent)
chain: MESVVVGEPGMSEGRRGLGRGLSALLGEVDAAPAQAPGEQLGGSREAPIEILQRNPDQPRRTFREEDLEDLSNSIREKGVLQPILVRPSPDTAGEYQIVAGERAWRAAQRAGLKTVPIMVRELDDLAVLEIGIIENVQRADLNVLEEALSYKVLMEKFERTQENIAQTIGKSXSHVANXMRLLXLPDEVQSYLVSGELTAXHARAIAAAADPVALAKQIIEGGLSVRETEALARKAPNLSAGKSKGGRPPRVKDTDTQALESDLSSVLGLDVSIDHRGSTGTLTITYATLEQLDDLCNRLTRGI

Variants of B1 are the subject of this assay. Briefly: one-hybrid fitness for binding NBS DNA (the Noc-binding site; scaled: cognate 1, non-cognate 0); higher = stronger binding. To be noted: with NBS DNA site. In outline: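 Values were rescaled so that cognate is 1 and non-cognate is 0. Each is a fitness, the log change in a variant's read ratio to wild type from Illumina reads of plasmids before and after selection, with three replicate libraries pooled and variants under 10 reads dropped. Selection of the Caulobacter ParB libraries, four specificity codons randomised, used E. coli USO with a HIS3 reporter, site 19 bp from the promoter, on M9-minus-histidine with 0.1 mM IPTG and 5 mM 3-AT for 48 hours at 37°C.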
Consider QPST, for which the “one-hybrid fitness for binding NBS DNA” value is at most 0.2.

Turning to GAPK, the “one-hybrid fitness for binding NBS DNA” value was at most 0.2. As to SYPW, the “one-hybrid fitness for binding NBS DNA” value was at most 0.2. Then TFVV, with at most 0.2. With ADQP, the “one-hybrid fitness for binding NBS DNA” value is at most 0.2. Then WGGL, with at most 0.2; and KSPR, with at most 0.2; and ICIS, with at most 0.2. Then KVSS, with at most 0.2; and NNTM, with at most 0.2. For HDLK the value was at most 0.2; for WQVL, at most 0.2; for LPLI, at most 0.2.

For the variant RKCF, the “one-hybrid fitness for binding NBS DNA” value was at most 0.2. Then DVLV, with at most 0.2; and IIRA, with at most 0.2. On to YWPF, for which the “one-hybrid fitness for binding NBS DNA” value was at most 0.2. For YMMC the value was at most 0.2; for TGQY, at most 0.2; for PCMQ, at most 0.2. KEHW: the “one-hybrid fitness for binding NBS DNA” value was at most 0.2. For the variant EILR, the “one-hybrid fitness for binding NBS DNA” value is at most 0.2. As for VKIT, the “one-hybrid fitness for binding NBS DNA” value is at most 0.2. Then KVVR, with at most 0.2; and PDMM, with at most 0.2. As to QRQK, the “one-hybrid fitness for binding NBS DNA” value was determined as 0.365. Then GYWN, with at most 0.2; and NTIM, with at most 0.2.

As for PAYR, the “one-hybrid fitness for binding NBS DNA” value was at most 0.2. As to VTKW, the “one-hybrid fitness for binding NBS DNA” value was at most 0.2. For the variant TPCF, the “one-hybrid fitness for binding NBS DNA” value was at most 0.2. Then CYAG, with at most 0.2; and RMLS, with 0.309; and STLK, with at most 0.2. For DEGS, the “one-hybrid fitness for binding NBS DNA” value is at most 0.2.

Turning to IRTN, the “one-hybrid fitness for binding NBS DNA” value is at most 0.2.

LKAT: the “one-hybrid fitness for binding NBS DNA” value is at most 0.2. For QWTR the value was 0.239; for CVRR, at most 0.2. For VDWC the value was at most 0.2; for QSHN, at most 0.2. For AHKF the value was at most 0.2; for LAHN, at most 0.2. KQYS: the “one-hybrid fitness for binding NBS DNA” value was at most 0.2. For HIVW, the “one-hybrid fitness for binding NBS DNA” value was at most 0.2. On to ITYV, for which the “one-hybrid fitness for binding NBS DNA” value is at most 0.2. In the case of AMST, the “one-hybrid fitness for binding NBS DNA” value is at most 0.2. As to DQRE, the “one-hybrid fitness for binding NBS DNA” value is at most 0.2. Then YFRT, with at most 0.2. Consider GSGR, for which the “one-hybrid fitness for binding NBS DNA” value is at most 0.2. Then VFDW, with at most 0.2; and DTPN, with at most 0.2; and CNLC, with at most 0.2.

Regarding HLLA, the “one-hybrid fitness for binding NBS DNA” value was at most 0.2.

Turning to QRLY, the “one-hybrid fitness for binding NBS DNA” value amounted to 0.447. For RPKT the value was at most 0.2. With GNKC, the “one-hybrid fitness for binding NBS DNA” value is at most 0.2.

With HRYN, the “one-hybrid fitness for binding NBS DNA” value is at most 0.2. For EKAF the value was at most 0.2. For IYTL the value was at most 0.2; for DLWV, at most 0.2; for TRPI, at most 0.2. Regarding VVLA, the “one-hybrid fitness for binding NBS DNA” value is at most 0.2.

With PPRP, the “one-hybrid fitness for binding NBS DNA” value was at most 0.2. With ASLR, the “one-hybrid fitness for binding NBS DNA” value was at most 0.2. For MNSR the value was at most 0.2. As to GTRL, the “one-hybrid fitness for binding NBS DNA” value was at most 0.2. Then KGLR, with at most 0.2; and YNQY, with at most 0.2. As for YHQA, the “one-hybrid fitness for binding NBS DNA” value is at most 0.2. Then LTYV, with at most 0.2; and LRRG, with at most 0.2; and EQAC, with at most 0.2. Take DCKS: the “one-hybrid fitness for binding NBS DNA” value was at most 0.2. Then SPMG, with at most 0.2. Then YRQY, with at most 0.2. For QIAA, the “one-hybrid fitness for binding NBS DNA” value is at most 0.2. For SRSH the value was at most 0.2.

Regarding QVMI, the “one-hybrid fitness for binding NBS DNA” value is at most 0.2. Then LWFV, with at most 0.2; and ASNA, with at most 0.2; and VRWW, with at most 0.2. Then AFVK, with at most 0.2; and HACW, with at most 0.2. For PEYS the value was at most 0.2; for YHPS, at most 0.2; for YHTA, at most 0.2. With RIDL, the “one-hybrid fitness for binding NBS DNA” value is at most 0.2. For PLSQ the value was at most 0.2; for HCDR, at most 0.2. Consider LVKR, for which the “one-hybrid fitness for binding NBS DNA” value is at most 0.2. For VVKE the value was at most 0.2; for VHHT, at most 0.2.

Regarding PVWM, the “one-hybrid fitness for binding NBS DNA” value was at most 0.2. For ATPD the value was at most 0.2; for KVLG, at most 0.2. For YPKL the value was at most 0.2. Then CSNV, with at most 0.2; and QDMC, with at most 0.2. For CLHY, the “one-hybrid fitness for binding NBS DNA” value was at most 0.2. NHDV: the “one-hybrid fitness for binding NBS DNA” value was at most 0.2. For CCQC the value was at most 0.2; for VLGV, at most 0.2; for RCTV, at most 0.2.

Consider DRMV, for which the “one-hybrid fitness for binding NBS DNA” value is at most 0.2.

Regarding QQMQ, the “one-hybrid fitness for binding NBS DNA” value was at most 0.2. As for IHYS, the “one-hybrid fitness for binding NBS DNA” value was at most 0.2. For RCLA the value was at most 0.2; for RTKC, 0.31. For HVQV the value was at most 0.2; for PSMI, at most 0.2.

YRQR: the “one-hybrid fitness for binding NBS DNA” value was at most 0.2. Then MKRL, with at most 0.2; and SPYT, with at most 0.2; and TTVK, with at most 0.2. As for RGNC, the “one-hybrid fitness for binding NBS DNA” value was at most 0.2.

Take MTCY: the “one-hybrid fitness for binding NBS DNA” value was at most 0.2. For ISIY, the “one-hybrid fitness for binding NBS DNA” value is at most 0.2.

In the case of ADKW, the “one-hybrid fitness for binding NBS DNA” value is at most 0.2.

Take SQGT: the “one-hybrid fitness for binding NBS DNA” value was at most 0.2. Consider EEKY, for which the “one-hybrid fitness for binding NBS DNA” value was at most 0.2.

With VLDM, the “one-hybrid fitness for binding NBS DNA” value is at most 0.2. For SFVT the value was at most 0.2. For FYYG the value was at most 0.2; for DNEV, at most 0.2; for TVKA, at most 0.2. For TDGD the value was at most 0.2. As for TTHY, the “one-hybrid fitness for binding NBS DNA” value was at most 0.2. Turning to ISNW, the “one-hybrid fitness for binding NBS DNA” value is at most 0.2.

As to RANF, the “one-hybrid fitness for binding NBS DNA” value is at most 0.2. Then RNFA, with at most 0.2; and KMPG, with at most 0.2; and GGHS, with at most 0.2. Consider GDMG, for which the “one-hybrid fitness for binding NBS DNA” value is at most 0.2. Consider LAVR, for which the “one-hybrid fitness for binding NBS DNA” value was at most 0.2.

In the case of PENR, the “one-hybrid fitness for binding NBS DNA” value was at most 0.2. On to RTNC, for which the “one-hybrid fitness for binding NBS DNA” value was 0.238. Turning to QNRE, the “one-hybrid fitness for binding NBS DNA” value is at most 0.2. For RPFK the value was at most 0.2; for RETF, at most 0.2; for IGAT, at most 0.2. Consider RIIS, for which the “one-hybrid fitness for binding NBS DNA” value is at most 0.2. Then LGHT, with at most 0.2; and IRSF, with at most 0.2; and APSV, with at most 0.2. For VGPC, the “one-hybrid fitness for binding NBS DNA” value is at most 0.2. Then HHML, with at most 0.2.

As to CPNL, the “one-hybrid fitness for binding NBS DNA” value was at most 0.2.

Take IFDS: the “one-hybrid fitness for binding NBS DNA” value is at most 0.2.

As to AWYG, the “one-hybrid fitness for binding NBS DNA” value is at most 0.2. Then DTMG, with at most 0.2; and TKRS, with at most 0.2. Then REDE, with at most 0.2.
